Our source for the viability index values is the supplement of paper PMC4723716.

± gives the uncertainty stated by the source. Whole data set: some 9,900 compounds, median “viability index relative to DMSO control” near 1, cut for the lowest 2% near 0.85. The list shows a part of the results.

This assay concerns Plasmodium falciparum NF54 stage V gametocytes. As to the kind of experiment: viability index relative to DMSO control (fraction); higher = less gametocyte killing. To be noted: 2.5 µM, library set: Broad Institute DOS, incubation time: 72 h. Put shortly:
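Stage V gametocytes of P. falciparum NF54 were held in serum-free screening medium at 0.75% gametocytemia and 1.25% hematocrit, 10 µl per well of a 1,536-well plate, and exposed to compound at 2.5 µM for 72 hr at 37°C under low oxygen. A 3 µl mix of 2.5 µM MitoTracker Red CMXRos with 0.13% saponin was then added for one to two hours, after which one field per well was imaged and red particles of 20–70 µm2 were counted. The viability index equals this count divided by the plate mean from wells given solvent alone.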
The compound `COc1cccc(NC(=O)N[C@@H]2C=C[C@H](CC(=O)NCc3ccncn3)O[C@H]2CO)c1` came in with a viability index of 1.1 ± 0.023. In the case of `COc1ccc(S(=O)(=O)N2C[C@@H](O)COC[C@H]3O[C@@H](CC(=O)N[C@@H]4CCN(Cc5ccccc5)C4)CC[C@@H]32)cc1` it was 1.08 ± 0.028; in that of `C[C@@H]1CN([C@H](C)CO)C(=O)c2cc(-c3cccc(C#N)c3)cnc2O[C@H]1CN(C)C(=O)C1CCOCC1`, 1.03 ± 0.011; in that of `COc1ccccc1-c1cn(CC[C@H]2CC[C@@H](NC(=O)C3CCCCC3)[C@H](CO)O2)nn1`, 1.014 ± 0.0066. Under `CC(=O)N1C[C@@H]2[C@H](c3ccccc31)[C@H](CO)N2Cc1ccc(Cl)cc1` stands 1.1 ± 0.018; under `C[C@H](CO)N1C[C@H](C)[C@@H](CN(C)C(=O)Nc2cccc(Cl)c2Cl)OCc2ccccc2-c2ccccc2C1=O`, 0.845 ± 0.043; under `C[C@@H]1CN([C@@H](C)CO)C(=O)c2ccccc2-c2ccccc2CO[C@@H]1CN(C)C(=O)[C@H](Cc1ccccc1)N(C)C`, 0.985 ± 0.014. `O=C1CN(S(=O)(=O)c2cccc(F)c2)C[C@H]2[C@@H](c3ccc(C4=CCCC4)cc3)[C@@H](CO)N12` had a viability index of 1.094 ± 0.0029.

`N#C[C@@H]1[C@H](c2ccccc2)[C@@H](CO)N1C(=O)Nc1cccc(F)c1` came in with a viability index of 0.997 ± 0.036. In the case of `COc1cccc(NC(=O)Nc2ccc3c(c2)C(=O)N(C)C[C@@H](OC)[C@@H](C)CN(CC2CC2)[C@H](C)CO3)c1` it was 1.0478 ± 0.00077; in that of `CCCC(=O)Nc1ccc2c(c1)OC[C@H](C)N(C(=O)c1cccnc1)C[C@@H](C)[C@@H](OC)CN(C)C2=O`, 1.064 ± 0.005. For the compound `CCCNC(=O)Nc1ccc2c(c1)OC[C@@H](C)N(Cc1cncnc1)C[C@H](C)[C@H](OC)CN(C)C2=O`, the viability index amounted to 1.06 ± 0.12. Under `C[C@H]1CN([C@@H](C)CO)C(=O)CCCn2cc(nn2)CO[C@@H]1CN(C)S(=O)(=O)c1cccc(C#N)c1` stands 1.09 ± 0.041; under `CCc1cnc(N2[C@@H](C#N)[C@@H](c3ccc(-c4cccc(F)c4)cc3)[C@@H]2CO)s1`, 1.058 ± 0.0019. Under `CO[C@@H](CN(C)S(=O)(=O)c1ccc(C)cc1)[C@H](C)CN([C@@H](C)CO)S(=O)(=O)c1cccc(Cl)c1` stands 1.1 ± 0.016. Under `COCc1cn(CC[C@@H]2CC[C@@H](NC(=O)Nc3c(C)noc3C)[C@H](CO)O2)nn1` stands 1.1 ± 0.11; under `COc1ccc2c3c([C@@H](CO)N(C)C[C@]33CN(C3)S(=O)(=O)c3cccs3)n(C)c2c1`, 1.05 ± 0.18. As to `COc1ccccc1-c1ccc2c(c1)O[C@@H](CN(C)CC1CCOCC1)[C@H](C)CN([C@@H](C)CO)S2(=O)=O`, the viability index was 1.015 ± 0.009. In the case of `COc1ccc2c3c([C@H](CO)N(C[C@]33CN(Cc4ccc(Cl)cc4)C3)C(C)=O)n(C)c2c1` it was 1.17 ± 0.1. Under `CN1CCCCN2[C@@H](CO)[C@@H](c3ccc(-c4ccc(F)cc4)cc3)[C@@H]2C1` stands 1.07 ± 0.075; under `C[C@@H]1CN([C@H](C)CO)C(=O)c2cc(-c3ccc(F)cc3)cnc2O[C@@H]1CN(C)S(C)(=O)=O`, 1.04 ± 0.098; under `COc1cccc(NC(=O)Nc2ccc3c(c2)C(=O)N(C)C[C@@H](OC)[C@H](C)CN[C@@H](C)CO3)c1`, 0.983 ± 0.059. In turn, `Cc1noc(C)c1NC(=O)N1C[C@@H](O)COC[C@H]2O[C@@H](CC(=O)NCC3CC3)CC[C@@H]21` came in with a viability index of 1.04 ± 0.053. For `N#Cc1cccc(-c2ccc3c(c2)[C@H]2[C@H](CCN2C(=O)c2ccccc2F)[C@H](CO)N3)c1`, the viability index amounted to 1.087 ± 0.0066. `CCC(=O)N1[C@@H](CO)[C@@H]2c3ccccc3N(C(=O)Nc3ccc(Cl)cc3)C[C@@H]21` came in with a viability index of 1.1 ± 0.044. Under `COCCNC(=O)C[C@H]1C[C@H]2c3cc(NC(=O)CN(C)C)ccc3O[C@H]2[C@H](CO)O1` stands 1.02 ± 0.018. In the case of `COc1ccccc1CNC(=O)C[C@@H]1C=C[C@H](NC(=O)CC2CC2)[C@@H](CO)O1` it was 1.0392 ± 0.00021; in that of `CO[C@H]1CN(C)C(=O)c2cccc(C#N)c2OCC[C@@H]2CC[C@@H](OC)[C@H](CN(C)C(=O)[C@H]1C)O2`, 0.9918 ± 0.007; in that of `O=C(C1CCOCC1)N1CC(=O)N2[C@H](C1)[C@@H](c1ccc(C#CC3CCCCC3)cc1)[C@@H]2CO`, 1.05 ± 0.036. `C[C@@H]1CCCCO[C@@H](CN(C)S(=O)(=O)c2ccccc2)[C@@H](C)CN([C@H](C)CO)C(=O)c2cc(NC(=O)Nc3ccc4c(c3)OCO4)ccc2O1` displayed a viability index of 1 ± 0.083. Under `C[C@@H]1CN([C@H](C)CO)C(=O)c2cc(NC(=O)Nc3ccc4c(c3)OCO4)ccc2O[C@@H](C)CCCCO[C@H]1CN(C)S(=O)(=O)c1ccccc1` stands 0.923 ± 0.028. Under `COc1ccc([C@@H]2C/C=C/C[C@H](C)Oc3ccccc3C(=O)N(C)[C@@H](C(C)C)C(=O)N2)c(OC)c1.COc1ccc([C@@H]2C/C=C\C[C@H](C)Oc3ccccc3C(=O)N(C)[C@@H](C(C)C)C(=O)N2)c(OC)c1` stands 0.9109 ± 0.0019; under `O=C(O)C[C@H]1C[C@H]2c3cc(NC(=O)Nc4ccc(C(F)(F)F)cc4)ccc3O[C@H]2[C@H](CO)O1`, 1.13 ± 0.032. Take `C[C@@H]1CN([C@@H](C)CO)C(=O)c2ccccc2-c2ccccc2CO[C@@H]1CN(C)S(=O)(=O)Cc1ccccc1`: the viability index turned out to be 0.949 ± 0.053.

Take `N#C[C@H]1[C@@H](c2ccc(-c3cccc(F)c3)cc2)[C@H](CO)N1C(=O)NC1CCCC1`: the viability index was 1.055 ± 0.0015. `COc1ccc2c3c([nH]c2c1)[C@@H](CO)N(C[C@]31CN(Cc2cccnc2)C1)C(=O)CC1CC1` came in with a viability index of 0.992 ± 0.04. As for `O=C(C[C@@H]1CC[C@@H](NC(=O)c2ccc(F)cc2)[C@@H](CO)O1)NCCc1ccccc1`, the viability index was found to be 1.09 ± 0.055. In the case of `COc1ccccc1C#Cc1ccc2c(c1)[C@@H]1[C@@H](CCN1S(=O)(=O)c1cn(C)cn1)[C@@H](CO)N2` it was 1.08 ± 0.031; in that of `CCS(=O)(=O)N1[C@H](CO)[C@H](c2ccc(C#Cc3ccccc3F)cc2)[C@@H]1C#N`, 1.03 ± 0.031. With `COc1ccc(-c2ccccc2[C@@H]2[C@@H](C#N)N(C(=O)NC(C)C)[C@H]2CO)cc1`, the viability index stood at 1.17 ± 0.056. In the case of `Cc1ccccc1-c1ccc([C@H]2[C@H](CO)N3C(=O)CN(S(C)(=O)=O)C[C@@H]23)cc1` it was 1.04 ± 0.017; in that of `C[C@@H]1CN([C@H](C)CO)C(=O)c2cccc(NS(C)(=O)=O)c2O[C@@H]1CN(C)Cc1ccc(-c2ccccc2)cc1`, 1.02 ± 0.028.

`O=C(C[C@H]1CC[C@@H](NS(=O)(=O)c2ccc(F)cc2)[C@@H](CO)O1)N1CCN(c2ccccc2)CC1`: the viability index turned out to be 1.17 ± 0.097. In the case of `C[C@@H]1CCCCO[C@@H](CN(C)C(=O)Cc2ccccc2)[C@@H](C)CN([C@@H](C)CO)C(=O)c2cc(NS(C)(=O)=O)ccc2O1` it was 0.99 ± 0.038. Under `CO[C@@H]1CN(C)C(=O)c2cc(NC(=O)c3cccc(F)c3)ccc2OC[C@@H](C)N(C)C[C@@H]1C` stands 0.956 ± 0.018; under `C[C@H](O)C#Cc1ccc([C@H]2[C@H]3CN(C(=O)c4ccc5c(c4)OCO5)CCCCN3[C@H]2CO)cc1`, 1.07 ± 0.065; under `C[C@H](CO)N1C[C@H](C)[C@@H](CN(C)Cc2ccncc2)OCCCC[C@H](C)Oc2ccc(NC(=O)Cc3ccccc3)cc2C1=O`, 1.04 ± 0.013. Under `N#C[C@@H]1[C@H](c2ccccc2-c2ccccc2F)[C@@H](CO)N1C(=O)c1cccc(F)c1` stands 1.09 ± 0.13. On to `CCS(=O)(=O)N1Cc2cc(C(=O)NCCOC)nc(-c3cccc(-c4ccncc4)c3)c2[C@H]1CCO`, for which the viability index amounted to 1.04 ± 0.026. Under `O=C(C[C@@H]1C=C[C@@H](NC(=O)Nc2ccc3c(c2)OCO3)[C@@H](CO)O1)NCCCN1CCOCC1` stands 1.02 ± 0.075; under `COc1ccc2c3c([C@H](CO)N(C[C@]33CCN(Cc4ccccc4OC)CC3)C(C)=O)n(C)c2c1`, 1.1 ± 0.021; under `C[C@H]1CN([C@@H](C)CO)C(=O)c2cccc(NC(=O)NC3CCCCC3)c2O[C@@H]1CN(C)Cc1ccc(C(F)(F)F)cc1`, 0.9452 ± 0.0071. Under `N#C[C@@H]1[C@@H](c2ccccc2)[C@@H](CO)N1C(=O)c1ccc2c(c1)OCO2` stands 1.099 ± 0.0033; under `COc1ccc(NC(=O)N2CCCCN3[C@H](C2)[C@@H](c2ccc(-c4ccccc4F)cc2)[C@@H]3CO)cc1`, 0.981 ± 0.042.

Compound `COc1ccc(-c2cnc3c(c2)C(=O)N([C@H](C)CO)C[C@@H](C)[C@@H](CN(C)C(=O)Nc2c(C)noc2C)O3)cc1` came in with a viability index of 0.962 ± 0.029.

Take `N#C[C@@H]1[C@@H](c2ccccc2C2=CCCC2)[C@@H](CO)N1C(=O)NC1CCCCC1`: the viability index is 1.03 ± 0.051. Compound `C/C=C/c1cnc2c(c1)C(=O)N([C@@H](C)CO)C[C@H](C)[C@@H](CN(C)C(=O)Nc1cccc(OC)c1)O2` registered a viability index of 0.983 ± 0.039. Regarding `C[C@@H]1CN([C@H](C)CO)C(=O)c2cccc(NC(=O)c3cnccn3)c2O[C@H]1CN(C)C(=O)NC1CCCCC1`, the viability index amounted to 1.03 ± 0.073. In the case of `Cc1noc(C)c1NC(=O)N(C)C[C@@H]1OCCCC[C@H](C)Oc2ccc(NC(=O)Nc3ccc(C(F)(F)F)cc3)cc2C(=O)N([C@@H](C)CO)C[C@@H]1C`, the viability index was determined as 1.04 ± 0.12. `CN1c2ccc(Br)cc2[C@H]2[C@H](CCN2C(=O)Cc2ccccc2)[C@H]1CO` had a viability index of 1.1417 ± 0.00016.

For `CN1C(=O)c2cc(NC(=O)c3ccc4c(c3)OCO4)ccc2OC[C@H]2O[C@@H](CC(=O)O)CC[C@H]21`, the viability index was found to be 1.12 ± 0.092.

`CN(C)C(=O)c1cccc(-c2ccc([C@@H]3[C@@H](CO)N4CCCCN(CC5CCOCC5)C[C@@H]34)cc2)c1` registered a viability index of 1.05 ± 0.053. Take `C/C=C/c1ccc([C@H]2[C@@H](CO)N3C(=O)CN(C(=O)Nc4ccc(F)cc4)C[C@@H]23)cc1`: the viability index was determined as 1.09 ± 0.053. For the compound `CCCC(=O)Nc1ccc2c(c1)C(=O)N(C)C[C@@H](OC)[C@@H](C)CN(Cc1ccc(F)cc1)[C@@H](C)CO2`, the viability index worked out at 0.941 ± 0.11. Under `C[C@@H]1CCCCO[C@@H](CN(C)S(=O)(=O)c2ccc(F)cc2)[C@@H](C)CN([C@@H](C)CO)C(=O)c2cc(N(C)C)ccc2O1` stands 0; under `O=C(NC1CCCC1)N[C@@H]1C=C[C@@H](CC(=O)N2CCOCC2)O[C@H]1CO`, 1.08 ± 0.077. In the case of `CN(C)C(=O)C[C@H]1CC[C@@H]2[C@H](COc3ccc(NC(=O)C4CCCCC4)cc3C(=O)N2C)O1` it was 1.01 ± 0.047. In the case of `CO[C@H]1CC[C@@H]2CCOc3c(C#N)cccc3C(=O)N(C)C[C@H](OC)[C@@H](C)C(=O)N(C)C[C@H]1O2` it was 1.05 ± 0.031. For the compound `O=C(Nc1ccc(Cl)cc1)N1C[C@H]2[C@@H](c3ccccc31)[C@H](CO)N2CC1CCCCC1`, the viability index was determined as 1.032 ± 0.0086.
